The source gives no read counts; variants with many changes may rest on few reads.
B1: CPEB3 Ribozyme (parent)
chain: UAACAGGGGGCCACAGCAGAAGCGUUCACGUCGCAGCCCCUGUCAGAUUCUGGUGAAUCUGCGAAUUCUGCUGUAUAUCUC

Variants of: B1
Experiment: self-cleavage, relative activity (ratio to wild type); higher = more cleavage; in vitro, sequencing
Outline: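 Relative activity compares each variant's cleaved/total read fraction with that of the unmutated ribozyme. To get these fractions, barcoded CPEB3 ribozyme libraries from rounds of error-prone PCR were transcribed with T7 RNA polymerase for 5 hours at 37°C and then given 15 min of DNase I treatment before EDTA was added. The RNAs were reverse transcribed with template switching and sequenced on Illumina, and DNA sequencing linked barcodes to variants. A minimum of 5 reads applied, and three batches were averaged.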

Variant | self-cleavage
A2G U26C C29U U49C | 0.16
A2G U43A U72A | 0.77
A2U A5G A64U | 0.11
A2U C11G A13U U26A C38U A75G U76C | 0.05
A2U G10C U31A U54C U58A | 0.22
A2U G7A A35G U66C U74C | 0.08
A2G U26C A28U G33U U41C U60A | 0.06
A2U A5G A28G U43A A45G A57G | 0.04
A2U A20C A47U G73C U74A | 0.04
A2G G33A C38A A47G U48C U72C U78C | 0.05
A2U A57G U74C | 1.14
A2U A3U G7A C68G | 0.06
A2G U31A G46A U48C U51A A56U A75C | 0.07
A2G U26A A45U C50G U58A U72A U78C | 0.05
A2U A5G U41C C68A | 0.16
A2U C11G A28U U51A A64G A77G | 0.07
A2U A13G C40U U41C G73A | 1.15
A2U U25C A65G | 0.25
A2U A15G A35G U72A | 0.57
A2U A20G U26A U49C U74A C79G | 0.29
A2U G9U U78C | 0.33
A2G U41C U69A | 0.51
A2U A18U A21G A35G U51A | 0.14
A2U G8A U25A U31C U67G | 0.14

Variant | self-cleavage
A2G G24C A28G A35G U43G U49A U51A | 0.04
A2G U26C G36A G46A A56U U72G | 0.04
A2U G16U A28G U72G A77G | 0.18
A2U A20G A21G A35U U69C | 0.22
A2U G10A A13U U78C | 0.28
A2U C23U U72A | 0.1
A2U A28U U58A | 0.5
A2U G9A A18U A56U | 0.18
A2U A35U A45U U54C | 0.19
A2U C27G A28G C34G U43C A64G A75G | 0.16
A2G G53U U72A U80C | 1.17
A2U A18G U26A A45G A64U C79A | 0.11
A2U C14A G42A | 0.25
A2U C12U A18U A20U U26A A28U U76C | 0.05
A2G G30A U67C | 0.11
A2U A35U U41C U49G U67C | 0.03
A2U A18G U25A A28U C37A U72A | 0.04
A2U A18G U51A | 0.5
A2G U48A A64G | 0.16
A2U A18U C40A A57U U78C | 0.09
A2G U58C A64U U74C | 0.15
A2U U25C A28G A64G C68A U74C | 0.03
A2U G6U C32A U67A U76C | 0.31
A2G U31C U58A | 0.07

Variant | self-cleavage
A2U A3G C4A A18C U67C | 0.27
A2G G33A G36U U80C | 0.31
A2U A47U A57G | 0.06
A2U G9A U72C U78C | 0.17
A2G G30U U43C C79U | 0.12
A2U A18U A20U | 0.15
A2U A20G U43A | 0.97
A2G G42A U51C U58C | 0.07
A2G U72C C79A | 1.07
A2U A28C A64G | 0.52
A2U U25A U31C U43A U60A U69C | 0.16
A2U A5U U41A U48C U74C A77G | 0.07
A2U A5G G36C A56U U66A | 0.16
A2U U25C A28C | 0.08
A2U A3G A45U G53A U80C | 0.88
A2G U26A C71U | 0.18
A2G U31A U72G | 0.31
A2G U54C A77G U78C | 0.42
A2U A18U U80A | 0.29
A2U G10A A13G C37G U48C | 0.08
A2U A5U A15G A65G | 0.29
A2U U25C A56G U78C | 0.25
A2U A3U A13G U66C | 0.29
A2U A20G U25C U26C U48C C62A U80A | 0.05

Variant | self-cleavage
A2U A5U G24A | 0.51
A2G U26C U58A U60C | 0.04
A2U A3G A15U C23U U25C U26G G33A | 0.08
A2G U26C G30A C34A A75C | 0.31
A2U C34G C62U | 0.1
A2U C12U U41C U66C | 0.83
A2U A18U U31A G42A A45U U69A | 0.08
A2G U51A G63A | 0.54
A2G U26A U66C U69C | 0.17
A2U A57G U78C | 0.79
A2U A5U U43C | 0.84
A2G U60C G73A | 0.65
A2U G19C A21G U51G A57G A75U | 0.03
A2G U48C U51A U58C G73C | 0.08
A2G U31A C44U U49C | 0.06
A2U C14U A18U U25C U26G C44U | 0.15
A2G U25C U41A A56G G70U U72C U78G | 0.14
A2U A35G U41A A47C U67C | 0.37
A2G U26C A64C C68A | 0.1
A2U A13U A18G A20G A28G A45G A57G | 0.38
A2G U26C U60A | 0.54
A2G U26C U60C | 0.33
A2G U31C A35G U43C A45U | 0.32
A2U A20C A64G | 0.38

Variant | self-cleavage
A2G U41C G42A A45G U49C U66C U67A | 0.17
A2U U25C A64U A75U | 0.08
A2G U25C U54C | 0.47
A2U A20G U41A A64G | 0.15
A2U A35U U41C A45U U80A | 0.2
A2G U41C A45U | 0.27
A2U A21G U31C U41G U54C | 0.14
A2G G63U U78C | 0.61
A2U A56G U78C | 0.53
A2G U31C A35G U43C | 0.68
A2G U26C A35G U78C | 0.94
A2U G7A A28G A35U A47G A57G U72C | 0.12
A2U A3G C4A A18U U67C U74A | 0.09
A2U C37A U72A | 0.38
A2U A5G G9A A21G U43C | 0.09
A2U A45U U60C | 0.23
A2U A18U U67C | 0.12
A2G G33U A56U U67C | 0.15
A2G U26C A35G U41A U43C U74A | 0.09
A2G U25C A45C A56G U67C | 0.1
A2U A15U C44U | 0.21
A2U A5G A21G A47G A57G A77G | 0.53
A2U A18G A28U C39U A65U | 0.14
A2U A13G U26C A47G | 0.27

Variant | self-cleavage
A2U A28G G33A U43C | 0.28
A2U G6A A35U U43C A56U | 0.28
A2G U67A U69A G73U | 0.21
A2U G6A U41C | 0.54
A2G U49C G52C U60A A77U | 0.09
A2G U43C U54C A75U A77G | 0.44
A2G U25C U31C A65G | 0.06
A2U A21G U49A U51C U60C | 0.07
A2U G19A U41C U51C | 0.21
A2U G8C A65G U67C U74C A75U | 0
A2U A21C A45G U72A | 0.11
A2U A15G A21U | 0.32
A2U A20U U25C U26C | 0.05
A2U A15G U49C | 0.34
A2U A45G U49C U51G U60A C81G | 0.17
A2G U31C U54A | 0.3
A2G U60C U66A U67C | 0.09
A2U G7U A45G G61U | 0.32
A2U G6A U41C A57G | 0.42
A2U A13G A18G A28U U43C | 0.09
A2G U51C U54A | 0.68
A2U A3G A18G A35G A64U U76C | 0.51
A2U A20U A28G U54C A64U | 0.07
A2U G6A U31C A35U U72C | 0.19

Variant | self-cleavage
A2G U43A A47C | 0.43
A2G U43C A47G A64U A75U U78C | 0.18
A2U G9U A13U A45G U49C U54A A57G | 0.04
A2G U41C U67A U69A | 0.28
A2G U72A U80C | 1.01
A2G U25C A56U U58C | 0.31
A2U G22C A45G U60C | 0.1
A2G U25C U58C G63A | 0.07
A2G G30U A35U A47G U54C A57G U72C | 0.07
A2G U25C U26C U72A | 0.07
A2G U48C G55C | 0.05
A2U A47G U67C | 0.24
A2G U48A A56U A57G U60C | 0.11
A2U C17U A45C | 0.1
A2U A35G A64G | 1.25
A2U G16A A56U U60C A64G | 0.16
A2G U25C C40A | 0.19
A2G U54C U69C G70A | 0.16
A2G U31C C39U G73A | 0.9
A2U A3G U25C A28U A56G G63U | 0.08
A2G U43C U51C U78A | 0.78
A2U A20U A47G A64G | 0.11
A2G U25C A28U U48C U54C U80C | 0.13

Source: the RNAGym collection of RNA variant scans (doi:10.1093/nar/gkz1192)
